Assay results reported in paper PMC4336329 (PLoS ONE, 2015).
Among all 310,000 compounds or so, about 2,200 (0.71%) showed an effect of 50% or more. Effects have a minus sign here. The list shows a part of the results.

Target: human ether-à-go-go-related gene (hERG) potassium channel (human, UniProt Q12809)
Assay: primary screen, population patch clamp on CHO cells stably expressing hERG

Chain of human ether-à-go-go-related gene (hERG) potassium channel (Q12809 whole entry, looked up): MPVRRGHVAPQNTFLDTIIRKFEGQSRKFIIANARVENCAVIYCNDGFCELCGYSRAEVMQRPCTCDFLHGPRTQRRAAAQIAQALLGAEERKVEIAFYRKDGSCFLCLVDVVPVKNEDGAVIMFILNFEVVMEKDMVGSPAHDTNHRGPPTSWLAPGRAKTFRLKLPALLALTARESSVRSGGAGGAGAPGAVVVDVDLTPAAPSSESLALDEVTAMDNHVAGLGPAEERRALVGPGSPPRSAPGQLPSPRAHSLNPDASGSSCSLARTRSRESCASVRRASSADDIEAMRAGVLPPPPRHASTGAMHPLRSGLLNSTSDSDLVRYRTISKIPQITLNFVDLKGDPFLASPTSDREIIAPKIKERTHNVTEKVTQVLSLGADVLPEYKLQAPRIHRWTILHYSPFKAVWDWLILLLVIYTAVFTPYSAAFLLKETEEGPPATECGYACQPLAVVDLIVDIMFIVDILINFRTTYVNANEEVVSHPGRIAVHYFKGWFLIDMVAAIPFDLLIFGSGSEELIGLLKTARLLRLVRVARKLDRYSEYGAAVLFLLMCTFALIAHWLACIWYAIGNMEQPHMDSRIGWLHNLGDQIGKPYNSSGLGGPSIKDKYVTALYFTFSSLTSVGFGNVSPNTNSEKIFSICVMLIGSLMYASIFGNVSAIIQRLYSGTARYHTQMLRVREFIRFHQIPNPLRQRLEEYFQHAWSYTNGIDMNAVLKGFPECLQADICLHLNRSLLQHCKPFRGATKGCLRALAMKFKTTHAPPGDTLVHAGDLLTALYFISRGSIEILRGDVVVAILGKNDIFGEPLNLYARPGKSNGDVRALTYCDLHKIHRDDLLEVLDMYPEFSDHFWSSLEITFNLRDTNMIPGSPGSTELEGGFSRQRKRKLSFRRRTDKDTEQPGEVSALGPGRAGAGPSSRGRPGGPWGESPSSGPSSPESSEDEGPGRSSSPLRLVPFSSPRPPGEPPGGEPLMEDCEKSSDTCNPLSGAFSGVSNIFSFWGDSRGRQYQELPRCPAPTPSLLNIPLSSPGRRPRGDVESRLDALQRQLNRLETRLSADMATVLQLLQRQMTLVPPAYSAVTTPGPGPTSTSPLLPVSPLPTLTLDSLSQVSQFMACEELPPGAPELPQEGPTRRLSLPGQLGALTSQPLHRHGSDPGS

Row | SMILES | hERG current change (%, negative = inhibition) at 1uM [%]
1 | CCCc1cc(=O)[nH]c(SCC(=O)N2CCN(S(=O)(=O)c3ccc(C)cc3)C2)n1 | 10.2
2 | CCCn1c(CC)nc([N+](=O)[O-])c1Sc1ccc(F)cc1 | 3.48
3 | CC(C)OP(=O)(OC(C)C)C(Nc1ccc([N+](=O)[O-])cc1)c1cccc([N+](=O)[O-])c1 (centres unmarked) | -4.93
4 | CCCOc1ccc(/C(O)=C2/C(=O)C(=O)N(CCCOC)C2c2ccncc2)cc1 (centres unmarked) | -7.78
5 | Cc1ccnc(NC(=O)CN2C(=O)c3ccccc3C2=O)c1 | 5.12
6 | COc1ccccc1NC1=NC2(CCCC2)N=C(N)N1 | 5.82
7 | C=C(C)COc1ccc(-c2ncncc2-c2ccc(Br)cc2)c(O)c1 | 11.7
8 | COCCCNC(=O)c1cc2cc(Br)ccc2oc1=O | 4.97
9 | COC(=O)C1=C(c2cc3ccccc3o2)C[C@@H]2CC[C@H]1N2C(=O)NCc1cccc2ccccc12 | 6.68
10 | CSCCC(NS(=O)(=O)c1ccc2c(c1)OCCO2)C(=O)NCCc1ccccn1 (centres unmarked) | 10.9
11 | COc1ccc(C(=O)/C=C/Nc2cccc(O)c2)cc1 | 12
12 | Cc1ccc(NC=C(S(=O)(=O)c2ccccc2)S(=O)(=O)c2ccccc2)c(C)c1 | 13.8
13 | CCn1cnc2c1c(=O)n(CC(=O)Nc1ccc(C(N)=O)cc1)c(=O)n2Cc1ccccc1 | 12.3
14 | COc1ccc(Cn2c(=S)[nH]c3ccsc3c2=O)cc1 | 2.05
15 | Nc1ncn[nH]1 | 14.6
16 | CCOc1ccccc1NC(=O)CCn1ccnc1 | 13.9
17 | O=C(CNS(=O)(=O)c1ccccc1)NCc1ccco1 | 14.8
18 | CC(C)(C)C(=O)OC/C(N)=N/OC(=O)c1ccc(Cl)cc1 | 8.08
19 | N#CCC(=O)N/N=C/c1cn(Cc2ccc3ccccc3c2)c2ccccc12 | 18.9
20 | CN1CCN2c3ncccc3Cc3ccccc3C2C1 (centres unmarked) | 0.834
21 | CC(Oc1ccc2ccc(=O)oc2c1)C(=O)c1ccccc1 (centres unmarked) | 0.0784

Row | SMILES | hERG current change (%, negative = inhibition) at 1uM [%]
22 | O=C(Nc1ccccc1C(=O)O)c1cc(S(=O)(=O)Nc2cccc(F)c2)ccc1Cl | 14.4
23 | COc1ccccc1-c1c(C#N)c(N)nc2c1CCC2 | 10.4
24 | COc1ccc(-n2c(=O)[nH]c3cc(C(=O)NCCc4ccc(OC)c(OC)c4)ccc3c2=O)c(OC)c1 | 15.2
25 | COc1ccc(C(=O)N/N=C/c2ccc(OC(=O)c3cccc4ccccc34)c([N+](=O)[O-])c2)cc1 | 9.91
26 | NC(=O)[C@@H]1CCOc2c(I)cc([N+](=O)[O-])cc2C(=O)N[C@@H](CO)C(=O)NCC(=O)N1 | 19.2
27 | COc1cc(CC(=O)O)c([N+](=O)[O-])cc1OC | 1.43
28 | Cc1c(NC(=O)C(C)OC(=O)/C=C/c2ccccc2)c(=O)n(-c2ccccc2)n1C (centres unmarked) | 13.7
29 | CC1CCCC2(C1)NC(=S)N(c1ccccc1)N2 (centres unmarked) | 6.88
30 | Cc1ccc(C)c(SCC(=O)OCC(=O)NCCNC(=O)COC(=O)CSc2cc(C)ccc2C)c1 | 9.88
31 | CC(C)CNC(=O)c1cccc(NC(=O)c2ccc3c(c2)C(=O)N(C)C3=O)c1 | 5.43
32 | CN(C)S(=O)(=O)c1cc(NC(=O)COC(=O)C2COc3ccccc3O2)ccc1Cl (centres unmarked) | 9.63
33 | CCN(CC(=O)Nc1ccc(C)c(S(=O)(=O)N2CCOCC2)c1)Cc1ccccc1 | 5.21
34 | COc1cc(OC)cc(C(=O)NCC(=O)Nc2ccc(-c3ccccc3)cc2)c1 | 10.6
35 | O=c1[nH]c2cc3c(cc2cc1CN(CCO)S(=O)(=O)c1ccccc1Cl)OCCO3 | 11.4
36 | c1ccc(C(c2nnnn2Cc2cccs2)N2CCN(C3CCCC3)CC2)cc1 (centres unmarked) | -20.8
37 | O=C(Nc1ccc(Cl)c(S(=O)(=O)N2CCOCC2)c1)c1n[nH]c(=O)c2ccccc12 | 11.7
38 | CCN1C(=O)[C@H]2[C@@H](c3ccc(C)cc3)N3C(=O)N(c4ccc(C)cc4)C(=O)[C@@]3(Cc3ccccc3)[C@H]2C1=O | 13.7
39 | CCC(=O)NC(=S)Nc1ccc(NC(=O)c2cc3ccccc3o2)c(OC)c1 | 13.6
40 | O=C(Nc1ccc(NC(=O)c2ccc(Cl)cc2Cl)cc1)c1ccc2c(c1)OCO2 | 19.1
41 | NC(=O)COc1ccccc1C1=NO[C@@](CC(=O)O)(C(=O)Nc2ccc3c(c2)OCCO3)C1 | 12.5
42 | COc1ccc(CN(C)C(C)C(=O)Nc2ccc([N+](=O)[O-])cc2Cl)cc1OC (centres unmarked) | -6.27

Row | SMILES | hERG current change (%, negative = inhibition) at 1uM [%]
43 | COC(=O)Cc1c(C)c2ccc(OCC(=O)N3CCCC(C)C3)c(C)c2oc1=O (centres unmarked) | 8.94
44 | COc1c(Br)cc(Br)cc1/C=N/NC(=O)c1cccnc1 | 7.26
45 | CCOC(=O)c1c(NC(=O)CSc2nnc(Cc3ccccc3)o2)sc(C(C)=O)c1C | -16.3
46 | CCOc1ccc(-n2c(=O)c3sccc3n(Cc3cccc([N+](=O)[O-])c3)c2=O)cc1 | 2.74
47 | C[C@H](NC(=O)c1nc[nH]c1C(=O)NCc1ccccc1)C(=O)OC(C)(C)C | -3.26
48 | CCCC1(c2ccccc2)NC(=O)N(CC(=O)N2CC(=O)Nc3ccccc32)C1=O (centres unmarked) | 8.83
49 | COc1ccc(CNC(=O)CSc2ncn[nH]2)cc1 | -9.54
50 | O=C(Nc1c(C(=O)N2CCN(c3ccccn3)CC2)oc2ccccc12)c1ccc([N+](=O)[O-])cc1 | -4.07
51 | NC(=O)CC1C(=O)N(c2ccc(F)cc2)C(=O)N1NC(=O)CCc1ccccc1 (centres unmarked) | 10.6
52 | Cn1ccnc1SCc1cc(=O)[nH]c2ccccc12 | 19.2
53 | COc1ccc(/C=N/NC(=O)Nc2nonc2N)cc1 | -1.78
54 | O=c1c(-c2cccc([N+](=O)[O-])c2)[n+]([O-])c2ccccc2n1O | 23
55 | CCCCCN(C(=O)CCC(=O)OCc1cccc(F)c1)c1c(N)n(CCCC)c(=O)[nH]c1=O | 10.2
56 | CC1CN(Cc2cc(=O)oc3cc(O)c(Cl)cc23)CC(C)O1 (centres unmarked) | 12.3
57 | Cc1ccc(S(=O)(=O)N2CCCOC2CNC(=O)C(=O)NCCc2c[nH]c3ccccc23)cc1 (centres unmarked) | 14.2
58 | CCOc1ccccc1NC(=S)N(CCCN1CCOCC1)Cc1cn(C)c2ccccc12 | 5.62
59 | C#CC(C)(C)NC(=O)c1ccc(-c2ccccc2F)cc1 | 6.64
60 | CC(C)(CNS(=O)(=O)c1ccc2c(c1)OCCO2)N1CCOCC1.Cl | 10.8
61 | CC1(C)CC(=O)C2=C(C1)N(c1ccc(Cl)cc1)C(=O)C2(O)C(F)(F)F (centres unmarked) | -4.33
62 | CC(OC(=O)CNC(=O)COc1ccccc1)C(=O)N(C)Cc1ccccc1 (centres unmarked) | 17.2
63 | CC(=O)O[C@@H]1[C@@H](O)[C@@H](O)[C@H](Oc2c(-c3ccc(O)cc3)oc3c(CC=C(C)C)c(O)cc(O)c3c2=O)O[C@H]1C | 11.6

Row | SMILES | hERG current change (%, negative = inhibition) at 1uM [%]
64 | Cc1ccc(C)c(N2CCN(C(=O)c3cc(S(=O)(=O)N4CCOCC4)ccc3F)CC2)c1 | 0.203
65 | Cc1nn(C)cc1NC(=O)CCSc1nc(-c2ccco2)cc(C(F)(F)F)n1 | 2.51
66 | Cc1ccc(S(=O)(=O)N(C)C)cc1NC(=O)CSc1nc2ccccc2c(=O)n1CC1CCCO1 (centres unmarked) | -8.49
67 | Cc1cc(=O)[nH]c(N/N=C/c2ccc(F)cc2)n1 | 15.9
68 | N#Cc1c(C(F)(F)F)cc(-c2ccco2)nc1SCc1ccncc1 | 4.12
69 | O=C(CCS(=O)(=O)Cc1ccccc1)N1CCN(c2ccccc2)CC1 | -5.53
70 | Cc1cc(C)n2c(=O)c3ccc(Cl)cc3nc2c1C#N | 12.2
71 | O=C(Cc1nc2ccccc2[nH]1)c1ccc(Cl)cc1 | 11.4
72 | CCCNc1cc(C)oc(=O)c1C(=O)CC | 18.4
73 | O=C(Nc1ccccc1C(=O)OCc1nnc(-c2ccccc2)o1)c1ccco1 | 0.391
74 | Cc1ccc(CN(C(=O)c2ccco2)C2CCS(=O)(=O)C2)cc1 (centres unmarked) | 4.51
75 | Cc1c(C)c2ccc(OCC(=O)Nc3ccc(N4CCC(C)CC4)cc3)cc2oc1=O | 14
76 | CCOc1ccc(NC(c2ccccn2)c2oc(CO)cc(=O)c2O)cc1 (centres unmarked) | 11.1
77 | COc1ccc(C)cc1S(=O)(=O)NC(C)C(=O)Nc1ccc2c(c1)OCO2 (centres unmarked) | 9.62
78 | COc1ccc(-c2cc(CNS(=O)(=O)c3cc(OC)ccc3OC)on2)cc1 | 8.68
79 | O=S(=O)(c1ccc(Br)s1)N1CCCCC1 | 10.4
80 | CCOc1ccc(N(CC(=O)NCCCOC)S(C)(=O)=O)cc1 | 2.69
81 | C=C(C)Cn1c(=O)c2c(nc3n2CCCN3CCc2ccccc2)n(C)c1=O | -41.5
82 | Cc1ccc(-n2c(CNc3ccc(F)cc3)nnc2SCC(N)=O)cc1 | 2.57
83 | O=C(Nc1ccccc1)Nc1cccc2ccccc12 | 8.06
